# Measured values reported in PubChem BioAssay AID1745853 (National Center for Advancing Translational Sciences (NCATS), 2022).
# This is one part of the list. The main result of the screen is listed elsewhere. These columns were measured beside it and carry no call.
# Tests used:
# Assay in all cases: Primary Screen for Target Class Profiling of Small Molecule Inhibitors of Methyltransferases
# [1] = target: Glycine N-methyltransferase (Homo sapiens) (UniProt Q14749); conditions: purified enzyme, MTase-Glo SAH luminescence; measured here: GNMT inhibition; at 40 µM; stronger effect = lower value
# Procedure, shortened: (§1)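 Each enzyme was reacted with SAM and its substrate, with compounds tested once at 40 uM; SAH formed was read by MTase-Glo luminescence.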
# [2] = target: Guanidinoacetate N-methyltransferase (Homo sapiens) (UniProt Q14353); conditions: purified enzyme, MTase-Glo SAH luminescence; measured here: GAMT inhibition; at 40 µM; stronger effect = lower value
# Procedure, shortened: as §1
# [3] = target: Histamine N-methyltransferase (Homo sapiens) (UniProt P50135); conditions: purified enzyme, MTase-Glo SAH luminescence; measured here: HNMT inhibition; at 40 µM; stronger effect = lower value
# Procedure, shortened: as §1
# [4] = target: Nicotinamide N-methyltransferase (Homo sapiens) (UniProt P40261); conditions: purified enzyme, MTase-Glo SAH luminescence; measured here: NNMT inhibition; at 40 µM; stronger effect = lower value
# Procedure, shortened: as §1
# [5] = target: Phenylethanolamine N-methyltransferase (Homo sapiens) (UniProt P11086); conditions: purified enzyme, MTase-Glo SAH luminescence; measured here: PNMT inhibition; at 40 µM; stronger effect = lower value
# Procedure, shortened: as §1
# % is scaled to controls: 0 for no effect and ±100 for the full control effect.
Compound,"activity change, negative = inhibition [1] [%]","activity change, negative = inhibition [2] [%]","activity change, negative = inhibition [3] [%]","activity change, negative = inhibition [4] [%]","activity change, negative = inhibition [5] [%]"
O=c1c(-c2cccc(C(F)(F)F)c2)ccc2n1C[C@H]1C[C@@H]2CN(S(=O)(=O)c2cccs2)C1,-3.94,-11.5,-2.54,-17,-13.4
CN(C)c1cc2c(cc1Sc1nc3c(N)nccc3n1CCNCC(C)(C)C)OCO2,-5.07,-4.17,-41.1,-53.5,-19.7
CCN(CC)C(=O)c1ccc(C2=CC3(CCNCC3)Oc3cccc(O)c32)cc1,-0.431,-2.91,3,-20.5,-1.13
O=S1(=O)N(CCN2CC=C(c3c[nH]c4cc(F)ccc34)CC2)c2cccc3c2N1CCC3,-3.45,10.7,-51.7,-9.22,-5.25
Cc1cn(C[C@H](N)C(=O)O)c(=O)n(Cc2cc(-c3ccccc3)sc2C(=O)O)c1=O,-5.32,3.51,9.82,-8.7,3.85
COc1ccc(C2c3cccn3-c3ccccc3CN2C(=O)Nc2ccc(C)cc2C)cc1OC (stereo not given),7.5,0,-2.61,1.5,5.27
O=C(Nc1ccccc1Cl)N1Cc2ccccc2-n2cccc2C1c1ccc(F)cc1 (stereo not given),0.908,1.66,3.66,-3.46,4.45
C#C[C@H]1CN2CC[C@H]1C[C@@H]2CNC(=O)COCC(=O)O,-1.27,-3.9,-3.07,-8.92,-4.52
CC1c2cccn2-c2ccccc2CN1C(=O)Nc1ccccc1F (stereo not given),6.23,1.29,2.67,-4.37,4.41
CCn1cnc2c(Nc3cccc(Cl)c3)nc(N[C@@H]3CCCC[C@@H]3N)nc21,-9.87,0.252,-29.5,-24.7,-5.35
O=C1Nc2ccc3ncsc3c2/C1=C/c1cnc[nH]1,-61.1,-7.36,-13.4,-23.7,-8.78
COc1ccc(OC)c(NC(=O)N2Cc3ccccc3-n3cccc3C2c2ccc(N(C)C)cc2)c1 (stereo not given),12.6,0,11.8,9.01,8.17
CC1=CC2/C=C(\C)CCC(O)C(O)/C=C/C(=O)OC23C(=O)NC(CC(C)C)C3C1C (stereo not given),-2.35,7.88,4.15,-9.05,-3.82
CSc1ccc(C2c3cccn3-c3ccccc3CN2C(=O)Nc2ccccc2)cc1 (stereo not given),2.42,0.599,4.09,1.49,5.18
CC[C@@H](C)[C@H]1C(=O)O[C@H](C(C)C)C(=O)N(C)[C@@H]([C@@H](C)CC)C(=O)O[C@H](C(C)C)C(=O)N(C)[C@@H]([C@H](C)CC)C(=O)O[C@H](C(C)C)C(=O)N1C,5.34,4.88,13,-8.22,0.243
Cc1ccc2c(c1)[C@H]1CN(C)CC[C@H]1N2C(=O)CSc1nnnn1-c1ccc(Cl)cc1,-0.381,1.16,-5.3,-14.3,-5.42
CN(C)c1ccc(C2c3cccn3-c3ccccc3CN2C(=O)Nc2ccccc2C(F)(F)F)cc1 (stereo not given),9.79,0,1.94,4.04,5.85
CCOc1ccccc1NC(=O)N1Cc2ccccc2-n2cccc2C1c1cccs1 (stereo not given),-0.912,0.687,0.4,-0.768,5.19
Cc1cccc(NC(=O)N2Cc3ccccc3-n3cccc3C2c2ccc(N(C)C)cc2)c1 (stereo not given),13.9,1.94,8.37,10.2,9.79
CCOC(=O)Cc1ccc(NC(=O)N2Cc3ccccc3-n3cccc3C2c2ccc(C)cc2)cc1 (stereo not given),5.59,0,4.89,2.78,0.987
CCOc1ccc(NC(=O)N2Cc3ccccc3-n3cccc3C2c2ccc(OCC)cc2)cc1 (stereo not given),-10.2,0.061,-3.8,-4.1,-3.86
CC(C)NC(=O)N1Cc2ccccc2-n2cccc2C1c1cccc(Cl)c1 (stereo not given),11.5,0.254,6.04,1.23,7.43
CCC1c2cccn2-c2ccccc2CN1C(=O)Nc1ccccc1C (stereo not given),-3.23,2.67,0.647,-3.77,2.53
COCCOCC(=O)N1CCC2(CC1)c1nccn1-c1ccccc1CN2CC(C)C,-2.08,-1.05,-4.63,-5.99,0.857
CCC1c2cccn2-c2ccccc2CN1C(=O)Nc1ccc(OC)cc1 (stereo not given),5.54,0.508,5.43,2.86,9.87
CCOc1ccc(C2c3cccn3-c3ccccc3CN2C(=O)Nc2ccc(OC)cc2)cc1 (stereo not given),-2.47,0,5.01,3.79,3.92
COC(=O)c1ccc(NC(=O)N2Cc3ccccc3-n3cccc3C2c2cccs2)cc1 (stereo not given),9.25,0,1.38,-0.374,5.66
O=C(Nc1ccc(F)c(Cl)c1)N1Cc2ccccc2-n2cccc2C1c1ccccc1 (stereo not given),2.7,0,-3.99,-0.496,2.98
